This passage reports gametocyte viability results from the supplement of paper PMC12297408.

Where a name gives a salt, the structure may show the parent alone. Out of some 1,300 compounds screened, about 40 (3%) showed activity. The list shows a part of the results.

In the experiment the test system is Plasmodium falciparum NF54/iGP1_RE9H ulg8 stage V gametocytes. Briefly: gametocyte viability (luciferase signal relative to DMSO control) (% of DMSO control); higher = less gametocytocidal activity, active = 50 or less. The following applies: exposure time: 72 h. In outline: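 Compounds from 10 mM DMSO stocks were spotted at nanolitre scale into 96-well plates, and day-12 stage V NF54/iGP1_RE9Hulg8 gametocytes (~2.5% gametocytemia, 3% hematocrit; medium with 0.5% Albumax II) were added to reach 10 µM or 1 µM, one well per concentration. The plates were kept at 37 °C for 72 h. Luminescence was then read on an IVIS Lumina II after mixing 90 µl of culture with 10 µl D-luciferin (30 mg/ml). Viability values are relative to the plate's mean DMSO vehicle signal.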

Take `CC(CN(C)C)CN1c2ccccc2Sc2ccccc21` (centres undefined) [Trimeprazine tartrate]: the gametocyte viability was inactive: 87.8 (concentration: 1 µM) and inactive: 88 (concentration: 10 µM).
On the same counts, the results for `CC1(C)[C@@H](OC(=O)CCC(=O)O)CC[C@]2(C)[C@H]3C(=O)C=C4[C@@H]5C[C@@](C)(C(=O)O)CC[C@]5(C)CC[C@@]4(C)[C@]3(C)CC[C@@H]12` [Carbenoxolone disodium salt] are inactive: 84 and inactive: 80.8.
On the same counts, the results for `N=C(N)NCCN1CCCCCCC1` [Guanethidine sulfate] are inactive: 90.9 and inactive: 99.5.
The corresponding values for `C#C[C@]1(O)CC[C@H]2[C@@H]3CCC4=CC(=O)CC[C@@H]4[C@H]3CC[C@@]21CC` [Norgestrel-(-)-D] are inactive: 84.3 and inactive: 80.2.
For the compound `CCCOc1ccc(C(=O)OCCN(CC)CC)cc1N` [Proparacaine hydrochloride], the gametocyte viability reads like this: (concentration: 1 µM) inactive: 98.5; (concentration: 10 µM) inactive: 105.
On the same counts, the results for `CC(=O)OCC(=O)[C@@]1(OC(C)=O)[C@@H](C)C[C@H]2[C@@H]3C[C@H](F)C4=CC(=O)C=C[C@]4(C)[C@@]3(F)[C@@H](O)C[C@@]21C` [Diflorasone Diacetate] are inactive: 92.2 and inactive: 89.6.
On the same counts, the results for `CC(CN(C)C)C(C)(O)Cc1ccc(Cl)cc1` (centres undefined) [Clobutinol hydrochloride] are inactive: 91 and inactive: 94.
The corresponding values for `C[C@]1(Cn2ccnn2)[C@H](C(=O)O)N2C(=O)C[C@H]2S1(=O)=O` [Tazobactam] are inactive: 84.9 and inactive: 89.7.
As to `CC[C@@H](CO)NCCN[C@@H](CC)CO` [Ethambutol dihydrochloride], the gametocyte viability is, setting by setting: (concentration: 1 µM) inactive: 84.7; (concentration: 10 µM) inactive: 83.4.
On the same counts, the results for `COCCc1ccc(OCC(O)CNC(C)C)cc1` (racemic) [Metoprolol-(+,-) (+)-tartrate salt] are inactive: 94 and inactive: 94.
The corresponding values for `C=CCSCC1Nc2cc(Cl)c(S(N)(=O)=O)cc2S(=O)(=O)N1` (centres undefined) [Althiazide] are inactive: 97.5 and inactive: 91.5.
As for `CC(C(=O)O)c1ccc(C(=O)c2ccccc2)s1` (centres undefined) [Tiaprofenic acid], the gametocyte viability (concentration: 1 µM) is inactive: 87.5 and the gametocyte viability (concentration: 10 µM) is inactive: 85.6.
`CC(=O)N(CC(O)CN(C(C)=O)c1c(I)c(C(=O)NCC(O)CO)c(I)c(C(=O)NCC(O)CO)c1I)c1c(I)c(C(=O)NCC(O)CO)c(I)c(C(=O)NCC(O)CO)c1I` (centres undefined) [Iodixanol]: the gametocyte viability (concentration: 1 µM) was inactive: 89.4 and the gametocyte viability (concentration: 10 µM) was inactive: 89.2.
The corresponding values for `c1ccc(CN(CC2=NCCN2)c2ccccc2)cc1` [Antazoline hydrochloride] are inactive: 95.1 and inactive: 90.5.
The corresponding values for `CN(C)CC/C=C1/c2ccccc2COc2ccc(CC(=O)O)cc21` [Olopatadine hydrochloride] are inactive: 77.9 and inactive: 86.5.
The corresponding values for `Nc1nc(NC2CC2)c2ncn([C@H]3C=C[C@@H](CO)C3)c2n1` [Abacavir Sulfate] are inactive: 81.6 and inactive: 75.3.
Consider `O=C(COc1ccc(Cl)cc1)N1CCN(Cc2ccc3c(c2)OCO3)CC1` [Fipexide hydrochloride], for which the gametocyte viability (concentration: 1 µM) is inactive: 83.4 and the gametocyte viability (concentration: 10 µM) was inactive: 78.5.
On the same counts, the results for `CNC(C)CCC=C(C)C` (centres undefined) [Isometheptene mucate] are inactive: 87.9 and inactive: 88.6.
The corresponding values for `CN(Cc1cnc2nc(N)nc(N)c2n1)c1ccc(C(=O)N[C@@H](CCC(=O)O)C(=O)O)cc1` (racemic) [Amethopterin (R,S)] are inactive: 80.3 and inactive: 83.6.
As for `CN(Cc1cnc2nc(N)nc(N)c2n1)c1ccc(C(=O)N[C@@H](CCC(=O)O)C(=O)O)cc1` [Methotrexate], the gametocyte viability is inactive: 91.4 (concentration: 1 µM) and inactive: 87.9 (concentration: 10 µM).
The corresponding values for `CCN(CC)CCNc1ccc(CO)c2sc3ccccc3c(=O)c12` [Hycanthone] are inactive: 81.1 and inactive: 84.5.
The corresponding values for `Cc1ccsc1/C=C/C1=NCCCN1C` [Morantel tartrate] are inactive: 89.3 and inactive: 90.8.
For `C[C@]12CC[C@@H]3c4ccc(OS(=O)(=O)O)cc4CC[C@H]3[C@@H]1CCC2=O` [Estropipate], the gametocyte viability is inactive: 95.5 (concentration: 1 µM) and inactive: 88.3 (concentration: 10 µM).
As to `COc1cccc(OC)c1C(=O)N[C@@H]1C(=O)N2[C@@H]1SC(C)(C)[C@@H]2C(=O)O` [Methicillin sodium], the gametocyte viability (concentration: 1 µM) is inactive: 83.4 and the gametocyte viability (concentration: 10 µM) is inactive: 83.1.
In the case of `Cc1ccc(S(=O)(=O)NC(=O)NN2CCCCCC2)cc1` [Tolazamide], the gametocyte viability (concentration: 1 µM) was inactive: 94.6 and the gametocyte viability (concentration: 10 µM) was inactive: 97.4.
On the same counts, the results for `CCN(CC)CCOC(=O)C(c1ccccc1)c1ccccc1` [Adiphenine hydrochloride] are inactive: 87.9 and inactive: 90.
As to `OC(CCCN1CCCCC1)(c1ccccc1)c1ccccc1` [Diphenidol hydrochloride], the gametocyte viability was inactive: 88.8 (concentration: 1 µM) and inactive: 89.7 (concentration: 10 µM).
On the same counts, the results for `CCOC(=O)c1ccc(N)cc1` [Benzocaine] are inactive: 86.2 and inactive: 81.3.
On the same counts, the results for `COc1cc(-c2ccc(=O)[nH]n2)ccc1OC(F)F` [Zardaverine] are inactive: 101 and inactive: 104.
The corresponding values for `CCCCC1(COC(=O)CCC(=O)O)C(=O)N(c2ccccc2)N(c2ccccc2)C1=O` [Suxibuzone] are inactive: 79.1 and inactive: 85.9.
Take `COc1cc(NC(C)CCCN)c2ncccc2c1` (centres undefined) [Primaquine diphosphate]: the gametocyte viability runs as follows: (concentration: 1 µM) inactive: 83.1; (concentration: 10 µM) active: 35.1.
The corresponding values for `CCCCNc1c(C(=O)OCC)c(C)nc2c1cnn2CC` [Tracazolate hydrochloride] are inactive: 88.5 and inactive: 76.3.
On the same counts, the results for `CSc1ccc2c(c1)N(CCC1CCCCN1C)c1ccccc1S2` (centres undefined) [Thioridazine hydrochloride] are inactive: 87.7 and active: 30.1.
On the same counts, the results for `CC1=C(/C=C/C(C)=C/C=C/C(C)=C\C(=O)O)C(C)(C)CCC1` [Isotretinoin] are inactive: 83.9 and inactive: 59.7.
For `CC/C(=C(/CC)c1ccc(O)cc1)c1ccc(O)cc1` [Diethylstilbestrol], the gametocyte viability was inactive: 88.9 (concentration: 1 µM) and inactive: 90.2 (concentration: 10 µM).
On the same counts, the results for `Cc1cc(-c2ccccc2)nnc1NCCN1CCOCC1` [Minaprine dihydrochloride] are inactive: 81.2 and inactive: 83.5.
On the same counts, the results for `NC(N)=Nc1nc(CSCC/C(N)=N/S(N)(=O)=O)cs1` [Famotidine] are inactive: 84.4 and inactive: 82.5.
As for `CCN(CCO)CCCC(C)Nc1ccnc2cc(Cl)ccc12` (centres undefined) [Hydroxychloroquine sulfate], the gametocyte viability is, setting by setting: (concentration: 1 µM) inactive: 83.3; (concentration: 10 µM) inactive: 80.8.
The corresponding values for `COc1ccc(CC2c3cc(OC)c(OC)cc3CC[N+]2(C)CCC(=O)OCCCCCOC(=O)CC[N+]2(C)CCc3cc(OC)c(OC)cc3C2Cc2ccc(OC)c(OC)c2)cc1OC` (centres undefined) [Atracurium besylate] are inactive: 84.6 and inactive: 86.7.
On the same counts, the results for `CC(=O)[C@H]1CC[C@H]2[C@@H]3CC=C4C[C@@H](O)CC[C@]4(C)[C@H]3CC[C@]12C` [Pregnenolone] are inactive: 87 and inactive: 84.4.
For the compound `CC(C)(C)c1ccc(C(O)CCCN2CCC(C(O)(c3ccccc3)c3ccccc3)CC2)cc1` (centres undefined) [Terfenadine], the gametocyte viability runs as follows: (concentration: 1 µM) inactive: 91.9; (concentration: 10 µM) inactive: 96.9.
On the same counts, the results for `CC(COc1ccccc1)NC(C)C(O)c1ccc(O)cc1` (centres undefined) [Isoxsuprine hydrochloride] are inactive: 86.9 and inactive: 91.3.
The corresponding values for `CCCCN1CCCCC1C(=O)Nc1c(C)cccc1C` (centres undefined) [Bupivacaine hydrochloride] are inactive: 92.8 and inactive: 95.4.
For the compound `CCOC(=O)NNc1nncc2ccccc12` [Todralazine hydrochloride], the gametocyte viability reads like this: (concentration: 1 µM) inactive: 86.1; (concentration: 10 µM) inactive: 76.5.
The corresponding values for `O=C1C(=O)c2ccccc2C(O)=C1C1CCC(c2ccc(Cl)cc2)CC1` (centres undefined) [Atovaquone] are inactive: 91.4 and inactive: 99.6.
On to `C[C@@H]1C[C@H]2[C@@H]3C[C@H](F)C4=CC(=O)C=C[C@]4(C)[C@@]3(F)[C@@H](O)C[C@]2(C)[C@@]1(O)C(=O)COC(=O)C(C)(C)C` [Flumethasone pivalate], for which the gametocyte viability is inactive: 99.3 (concentration: 1 µM) and inactive: 94.6 (concentration: 10 µM).
In the case of `Nc1ccc(S(=O)(=O)Nc2ccccn2)cc1` [Sulfapyridine], the gametocyte viability (concentration: 1 µM) was inactive: 88.7 and the gametocyte viability (concentration: 10 µM) is inactive: 83.6.
On the same counts, the results for `COc1ccnc(C[S+]([O-])c2nc3cc(OC(F)F)ccc3[nH]2)c1OC` (centres undefined) [Pantoprazole sodium] are inactive: 81.3 and inactive: 77.2.
The corresponding values for `Nc1ccn([C@@H]2O[C@H](CO)[C@@H](O)[C@@H]2O)c(=O)n1` [Cytarabine] are inactive: 94.5 and inactive: 95.5.
The corresponding values for `CN(C)CCCN1c2ccccc2Sc2ccc(Cl)cc21` [Chlorpromazine hydrochloride] are inactive: 87.8 and inactive: 80.9.
As to `CCOc1ccccc1OC(c1ccccc1)C1CNCCO1` (centres undefined) [Reboxetine mesylate], the gametocyte viability runs as follows: (concentration: 1 µM) inactive: 86.6; (concentration: 10 µM) inactive: 84.5.
Regarding `COc1ccc(CN2CCN(C(c3ccc(F)cc3)c3ccc(F)cc3)CC2)c(OC)c1OC` [Lomerizine hydrochloride], the gametocyte viability is inactive: 83.8 (concentration: 1 µM) and inactive: 81.8 (concentration: 10 µM).
On the same counts, the results for `CC(C)(C)NC[C@H](O)COc1ccccc1C1CCCC1` [Penbutolol sulfate] are inactive: 94.6 and inactive: 90.7.
For the compound `COc1ccc(C(=O)c2ccccc2O)c(O)c1` [Dioxybenzone], the gametocyte viability was inactive: 97.9 (concentration: 1 µM) and inactive: 102 (concentration: 10 µM).
On the same counts, the results for `Nc1nc2[nH]cc(CCc3ccc(C(=O)N[C@@H](CCC(=O)O)C(=O)O)cc3)c2c(=O)[nH]1` [Pemetrexed disodium] are inactive: 85.1 and inactive: 85.6.
On the same counts, the results for `O=C(OCCOCCO)c1ccccc1Nc1cccc(C(F)(F)F)c1` [Etofenamate] are inactive: 96.6 and inactive: 99.6.
Turning to `O=C(O)[C@H]1/C(=C/CO)O[C@@H]2CC(=O)N21` [Potassium clavulanate], the gametocyte viability reads like this: (concentration: 1 µM) inactive: 91.1; (concentration: 10 µM) inactive: 87.4.
